Results from paper PMC4336329 (PLoS ONE, 2015).
In all, about 310,000 compounds went through this assay and about 14,000 (4.5%) showed an effect of 50% or more. Effects have a minus sign here. Some of the results follow.

target: human ether-à-go-go-related gene (hERG) potassium channel (human, UniProt Q12809); experiment: primary screen, population patch clamp on CHO cells stably expressing hERG
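Further: peak tail current of the secondary pulse compared with the same well before compound.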

Chain of human ether-à-go-go-related gene (hERG) potassium channel (Q12809 whole entry, looked up): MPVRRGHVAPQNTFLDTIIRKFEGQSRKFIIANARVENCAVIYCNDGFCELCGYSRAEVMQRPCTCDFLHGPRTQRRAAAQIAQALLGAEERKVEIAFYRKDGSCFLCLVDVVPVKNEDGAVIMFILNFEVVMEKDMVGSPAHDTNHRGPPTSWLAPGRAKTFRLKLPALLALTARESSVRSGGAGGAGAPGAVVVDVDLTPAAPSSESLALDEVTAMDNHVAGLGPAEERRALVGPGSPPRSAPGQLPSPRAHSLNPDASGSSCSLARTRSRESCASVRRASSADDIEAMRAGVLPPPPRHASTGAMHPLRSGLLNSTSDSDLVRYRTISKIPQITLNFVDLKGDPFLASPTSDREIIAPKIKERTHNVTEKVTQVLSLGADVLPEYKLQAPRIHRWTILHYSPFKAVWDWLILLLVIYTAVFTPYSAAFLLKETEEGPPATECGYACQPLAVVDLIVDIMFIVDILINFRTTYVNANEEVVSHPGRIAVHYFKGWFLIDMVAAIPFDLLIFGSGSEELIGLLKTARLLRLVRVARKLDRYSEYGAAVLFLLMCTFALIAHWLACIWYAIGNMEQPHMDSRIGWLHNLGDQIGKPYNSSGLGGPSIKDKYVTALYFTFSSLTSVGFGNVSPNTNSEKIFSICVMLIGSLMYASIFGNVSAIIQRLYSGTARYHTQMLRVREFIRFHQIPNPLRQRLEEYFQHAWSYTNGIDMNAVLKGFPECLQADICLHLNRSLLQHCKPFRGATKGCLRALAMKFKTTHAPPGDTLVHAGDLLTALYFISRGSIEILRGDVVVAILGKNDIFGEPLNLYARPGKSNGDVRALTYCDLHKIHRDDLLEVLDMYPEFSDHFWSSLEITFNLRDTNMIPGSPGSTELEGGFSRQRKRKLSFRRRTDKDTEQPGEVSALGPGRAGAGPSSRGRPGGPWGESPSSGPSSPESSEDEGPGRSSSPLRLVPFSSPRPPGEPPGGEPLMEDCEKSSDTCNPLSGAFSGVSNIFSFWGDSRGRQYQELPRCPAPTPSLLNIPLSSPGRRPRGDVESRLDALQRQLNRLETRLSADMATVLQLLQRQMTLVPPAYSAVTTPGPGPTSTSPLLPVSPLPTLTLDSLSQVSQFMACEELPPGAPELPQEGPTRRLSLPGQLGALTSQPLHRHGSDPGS

For `O=C(CNC(=O)C1CCCCC1)NC1=NCCS1`, which “hERG current change (%, negative = inhibition) at 10uM” value is on record?
The value was 18.6%.

Which “hERG current change (%, negative = inhibition) at 10uM” value does the source give for `CCCCC(=O)Nc1ccc(C(=O)NNC(=O)CCCOc2ccc(Cl)cc2Cl)cc1` here?
The value was 7.25%.

`COC(=O)C(Cc1ccc(OC(=O)c2ccccc2C)cc1)N1Cc2ccccc2C1=O` (centres unmarked) was tested. Which “hERG current change (%, negative = inhibition) at 10uM” value did it give?
The value was 1.91%.

With `Cc1ncc([N+](=O)[O-])n1CCOC(=O)c1ccc(Br)cc1` as the compound, how does the “hERG current change (%, negative = inhibition) at 10uM” value read?
The value was -35.5%.

For `CCN(CC(=O)NCc1cccs1)C(=O)c1cccc(S(=O)(=O)Nc2cccc(C)c2)c1`, which “hERG current change (%, negative = inhibition) at 10uM” value is on record?
The value was -38.4%.

With `Cc1ccc2c(c1)c1c(n2CC(O)CNC2CCCC2)CCCC1.O=C(O)C(=O)O` (centres unmarked) as the compound, how does the “hERG current change (%, negative = inhibition) at 10uM” value read?
The value was -13.1%.

How did the “hERG current change (%, negative = inhibition) at 10uM” value turn out when `CC1(C)Cc2[nH]c3ccccc3c2C(C)(C)N1.Cl` was run?
Its value is 15.3%.

With `[Cl-].c1ccc(C[n+]2c(-c3ccccc3)csc2Nc2ccccc2)cc1` as the compound, how does the “hERG current change (%, negative = inhibition) at 10uM” value read?
The value was 19.6%.

How did the “hERG current change (%, negative = inhibition) at 10uM” value turn out when `COc1ccc(OC)c(CN2CCCC(CCC(=O)N(C)CCc3ccccn3)C2)c1` (centres unmarked) was run?
The value was -22.3%.

With `O=C(C1CCCN(S(=O)(=O)c2ccc(Br)cc2)C1)N1CCOCC1` (centres unmarked) as the compound, how does the “hERG current change (%, negative = inhibition) at 10uM” value read?
Its value is -13.8%.

`Cc1ccc(-n2ncc3c2CC(C)(C)CC3NC(=O)CCCN2CCCC2=O)cc1` (centres unmarked) was tested. Which “hERG current change (%, negative = inhibition) at 10uM” value did it give?
Its value is -1.21%.

`COC(=O)[C@H](CC(C)C)NC(=O)NCCCc1ccccc1` was tested. Which “hERG current change (%, negative = inhibition) at 10uM” value did it give?
Its value is 1.82%.

Which “hERG current change (%, negative = inhibition) at 10uM” value does the source give for `N#CCCn1[nH]c(-c2ccccc2)cc1=O` here?
Its value is 5.16%.

How did the “hERG current change (%, negative = inhibition) at 10uM” value turn out when `COc1cc(C)ccc1OCc1cc(C(=O)N2CCC(c3ccc(F)cc3)C2)no1` (centres unmarked) was run?
Its value is -2.19%.

With `CC(=O)Nc1cccc(NC(=O)C2CCCN2C(=O)Nc2cccc(F)c2)c1` (centres unmarked) as the compound, how does the “hERG current change (%, negative = inhibition) at 10uM” value read?
Its value is 12.5%.

`CCOC(=O)c1ccc(N2Cc3ccccc3C2)cc1O` was tested. Which “hERG current change (%, negative = inhibition) at 10uM” value did it give?
Its value is 3.14%.

How did the “hERG current change (%, negative = inhibition) at 10uM” value turn out when `CCCC(C(=O)NC1CCCC1)N(Cc1ccccc1)C(=O)c1snc(C(N)=O)c1N` (centres unmarked) was run?
The value was -29.5%.

For `Cc1cc(Oc2ccc(C(F)(F)F)cc2[N+](=O)[O-])c2c3c(c(=O)oc2c1)CCCC3`, which “hERG current change (%, negative = inhibition) at 10uM” value is on record?
Its value is 6.59%.

`O=C(C(=O)N1CCN(c2ccc(F)cc2)CC1)c1c[nH]c2ccccc12` was tested. Which “hERG current change (%, negative = inhibition) at 10uM” value did it give?
The value was -5.69%.

Which “hERG current change (%, negative = inhibition) at 10uM” value does the source give for `CCC(C(=O)Nc1c2c(nn1C(C)(C)C)CS(=O)(=O)C2)c1ccccc1` (centres unmarked) here?
Its value is -17.6%.

`COc1ccc(OC)c(CN2C(=O)c3ccccc3C2C(=O)NCc2cccnc2)c1` (centres unmarked) was tested. Which “hERG current change (%, negative = inhibition) at 10uM” value did it give?
The value was 0.718%.

For `Cc1sc2ncnc(NCC(c3ccco3)N(C)C)c2c1C.O=C(O)C(=O)O` (centres unmarked), which “hERG current change (%, negative = inhibition) at 10uM” value is on record?
Its value is -33.7%.

How did the “hERG current change (%, negative = inhibition) at 10uM” value turn out when `CCn1nc(C)c(CNC(=O)Nc2ccccc2C(=O)OC)c1C` was run?
Its value is 13.5%.
